# Over roughly 33,000 sequences, “E-score (-0.5 to 0.5)” has its median near -0.012; the highest 2% begin near 0.27. Some of the results follow.
# Molecular target: T1, Vhr1 (UniProt P40522)
# T1 sequence: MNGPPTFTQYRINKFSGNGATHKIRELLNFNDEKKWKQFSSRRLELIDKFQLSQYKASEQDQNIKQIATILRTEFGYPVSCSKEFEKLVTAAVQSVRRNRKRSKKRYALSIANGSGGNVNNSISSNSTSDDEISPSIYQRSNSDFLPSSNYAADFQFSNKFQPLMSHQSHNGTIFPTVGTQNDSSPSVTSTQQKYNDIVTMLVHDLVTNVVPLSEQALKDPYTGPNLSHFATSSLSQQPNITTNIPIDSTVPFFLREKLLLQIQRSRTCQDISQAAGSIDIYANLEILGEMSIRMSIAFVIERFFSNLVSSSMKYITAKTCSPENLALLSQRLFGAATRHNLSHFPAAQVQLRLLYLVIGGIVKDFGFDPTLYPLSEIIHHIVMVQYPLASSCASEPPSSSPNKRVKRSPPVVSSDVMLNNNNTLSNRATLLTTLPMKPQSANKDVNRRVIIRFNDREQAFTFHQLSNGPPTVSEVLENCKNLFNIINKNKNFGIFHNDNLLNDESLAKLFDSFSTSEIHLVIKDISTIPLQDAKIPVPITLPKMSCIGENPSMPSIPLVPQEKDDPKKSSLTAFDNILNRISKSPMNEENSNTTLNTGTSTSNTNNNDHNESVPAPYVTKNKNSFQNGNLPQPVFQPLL
# Experiment: PBM E-score (8-mer binding enrichment) (E-score (-0.5 to 0.5)); higher = stronger / more preferred TF binding; most listed sequences are background and not binding sites
# Settings: protein concentration: 200 nM; construct: GST-full length
# In short: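 Universal all-10-mer Agilent arrays, fresh or stripped once, were converted to double-stranded form by primer extension. GST-tagged yeast transcription factors from PURExpress in vitro transcription/translation, full-length or DNA-binding domain only, were applied at about 100-200 nM and detected with fluorescent anti-GST. After masliner normalisation, the Universal PBM Analysis Suite scored each ungapped eight-base word together with its reverse complement by E-score.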
row,Sequence,PBM E-score
1,ATGTGTAA,0.174
2,CAGTGCGC,-0.156
3,CGTTGACC,-0.0345
4,GAAGCATC,-0.161
5,CCAATGGA,0.0225
6,CAGCTGGC,0.0577
7,CTTAACGC,-0.137
8,ACCCCAGG,-0.122
9,CTGGAACC,-0.059
10,AACCAGCT,0.0891
11,AGTCAGAT,0.27
12,ATACGAGC,0.171
13,CATACTGG,0.0817
14,GTTCTGTA,0.159
15,ACTTCAGG,-0.137
16,AGAACATA,0.0629
17,AAGGAACG,-0.128
18,ATCATACG,0.203
19,AGCCGCCG,0.0654
20,ATACTGAA,0.00307
21,AACACCTG,-0.00037
22,ATCCGGCC,-0.0203
23,CTTGACAC,-0.125
24,GCCCTATA,-0.159
25,TAAAAAGA,-0.167

row,Sequence,PBM E-score
1,ACGTGCGC,-0.0561
2,CAACGCCA,-0.137
3,TTCCCAAA,-0.0171
4,CATGCTGA,0.275
5,CCCGTGCA,-0.119
6,CCTCAGAG,-0.032
7,AGCCTTAG,-0.25
8,AGGTGTGC,0.163
9,ACATTATG,0.146
10,GATTGAAA,-0.135
11,CCCAAAAG,-0.22
12,AAGGCTGG,-0.27
13,CTCACGAC,0.0741
14,AGTGGAGA,-0.0499
15,ATAGTGGC,0.0241
16,ATAGGGGG,-0.221
17,ACGACAGT,-0.125
18,AATACTCA,0.15
19,TACGCGCA,0.0598
20,AGTCTGGC,0.061
21,CGAACATC,0.0495
22,GTCCCAGA,-0.169
23,TCTCGAGA,-0.0788
24,AGGTCTAT,0.0337
25,AGATCAAT,0.0633

row,Sequence,PBM E-score
1,GCTTATAA,-0.175
2,ACCGCAGA,-0.143
3,ACATGTTA,0.0982
4,CTAGTATC,0.163
5,AACATACT,0.137
6,TAACACCA,0.203
7,CATAAGCA,-0.191
8,CTATATGC,0.149
9,CGACGCTA,-0.0453
10,AGCCGAGG,0.0354
11,AATTTGAA,-0.224
12,GATCTAGC,0.0633
13,CCGATAAG,-0.229
14,GAAACCCA,0.212
15,CTTAACAA,-0.202
16,AGTCCCGG,-0.116
17,AAAGCTCA,-0.175
18,AGACAATC,0.0276
19,ACAGATCG,-0.0921
20,CTGCACGC,-0.0919
21,AAGCCTAG,-0.178
22,TGAGACCA,-0.0249
23,ATCTGTTG,-0.0541
24,AGCTGCGG,-0.115
25,GCGCTATA,-0.16

row,Sequence,PBM E-score
1,CACGTTAA,-0.199
2,CCCGCGTA,-0.0687
3,CTCGGTAC,-0.019
4,TACCGGAA,-0.0783
5,CCCGACAA,0.171
6,CTAGGACC,-0.201
7,AGTAGAGA,-0.0214
8,GAGCGGGC,-0.14
9,AGGATGAA,-0.0977
10,ATGGGCAC,0.182
11,GCGCTCAC,0.0509
12,ACAATGGG,0.0286
13,AGTATAAA,0.12
14,CGTCTGTA,-0.0348
15,CATTTGAC,-0.0227
16,CCGACGGA,-0.0154
17,GTAGGACA,-0.0445
18,CTTGAGCA,-0.0946
19,ACGGCAAT,0.0757
20,GCGACTCA,0.477
21,GGAACAAA,0.0761
22,GAAAATTA,-0.106
23,CAGGCTCG,0.0554
24,TCACGTGA,-0.00172
25,GTCCCAAA,-0.0966

row,Sequence,PBM E-score
1,CTAACTAC,0.0663
2,CGTAGGAC,-0.0595
3,GACACAAA,0.119
4,CCTTTCTA,-0.255
5,ACAAGAAA,-0.0651
6,ACCAGGAC,0.0435
7,AGGCGAGA,-0.184
8,AGAATGAG,0.094
9,CCACGTCG,0.0204
10,AGAATCAC,0.228
11,GCTTACTA,0.0118
12,ACAACGGG,0.199
13,CGACTAGA,-0.00513
14,CCAGGCTA,0.0469
15,ACTCACCG,0.309
16,CGGAATCC,0.0628
17,CTCGTGCA,-0.0069
18,AATCCATA,0.0257
19,CGCGATAC,0.0526
20,ATGTCCGC,-0.115
21,CTGTCTGA,-0.0546
22,TCTGTCAA,-0.287
23,CTCGTATC,0.00564
24,CGGTTTCC,-0.0822
25,CAACAGTC,-0.00634

row,Sequence,PBM E-score
1,AATCACGA,0.159
2,CCCTAGGA,-0.0313
3,AGGTACAT,0.0171
4,TTAGATAA,-0.128
5,CGTGCATA,0.0761
6,ATAAGGTG,0.0384
7,GACATCGC,-0.119
8,ATGGTCCA,-0.18
9,TCGGACAA,-0.0997
10,GAATTATC,-0.0428
11,CACAAAAC,-0.045
12,CCCCATCC,0.0743
13,CCTACATC,-0.0958
14,GCTCATCA,0.109
15,ACAGACAC,0.236
16,CGTGCTTA,0.0702
17,ACTATTCT,0.0151
18,GCCATCCC,-0.00835
19,CTCGCGTC,0.0582
20,CAATATAC,0.102
21,AGTTGACA,0.061
22,ACCGCATA,0.149
23,CCGGCGTC,-0.155
24,ACACCGAT,0.1
25,TGAGCAAA,0.0847

row,Sequence,PBM E-score
1,AGAACGCA,-0.0188
2,TCGATCAA,-0.165
3,CAAGCTGC,0.0434
4,CCAAGGAC,-0.149
5,CAATAACA,0.17
6,AGTGCTAC,-0.0633
7,AGAATTGC,-0.0881
8,CGATGCCG,-0.0961
9,CCCATCCA,0.227
10,CAAAGCAA,0.0671
11,CGAGCGGC,0.0132
12,GAGCTAAC,-0.267
13,AGTCAGTC,0.214
14,AATTCCGG,-0.238
15,ACCCCAAT,-0.0588
16,GCCGGCCA,-0.136
17,ACTCAACC,0.238
18,TATACTCA,0.167
19,CCGAAGAA,-0.149
20,ACGAACCC,-0.119
21,GCCAAACC,-0.143
22,ATCCTATC,0.0383

# Reference: the supplement of paper PMC3334620
